Source: PubChem BioAssay AID1508623 (National Center for Advancing Translational Sciences (NCATS), 2021)
Out of some 48,000 compounds screened, about 450 (0.94%) were called active. Not shown: some 19% with an inconclusive outcome. Calls follow the shape of the dose curve; as a rule, active = well fitted inhibition curve with a large enough effect; inconclusive = small, poorly fitted or top-dose-only effect; inactive = no such curve, though single readings can be large or run the other way. The list shows a part of the results.

assay: Primary qHTS for Identification of Small Molecule Inhibitors of Huntingtin Promoter Activity; settings: HEK293 HTT promoter firefly luciferase reporter (activity 0% = vehicle and -100% = no light), 24 h; series mostly up to 57.5 µM; activity change, negative = inhibition: at the top concentration; also: nearly all actives have a fitted effect of over 50% in size
Outline: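 HEK293 luciferase promoter-reporter cells (2,500/well) plated 24 h, then compounds added at up to 57.5 uM final for 24 h at 37 °C. Firefly luminescence by Dual-Glo, normalized to vehicle (0%) and zero RLU (-100%).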

SMILES | activity change, negative = inhibition
COc1ccc(NC(=O)c2cc(C(C)=O)n3ccccc23)cc1 | inactive: 29.8%
COc1cc2c(=O)n(Cc3ccco3)c(=O)n(CC(=O)Nc3ccc(F)cc3)c2cc1OC | inactive: -2.64%
CCOc1cc2[nH]c(=O)n(Cc3ccc(C(=O)N4CCN(c5ccccc5)CC4)cc3)c(=O)c2cc1OCC | inactive: -26.2%
CSc1ncc(Cl)c(C(=O)Nc2cc(C(F)(F)F)ccc2Cl)n1 | inactive: 0.528%
Cc1nc(-c2ccc(Cl)cc2)sc1CCNC(=O)C(=O)Nc1ccc2c(c1)OCCO2 | inactive: -33.5%
O=C(O)c1ccc(NCc2nc3ccccc3n2CCOc2ccccc2Cl)cc1 | inactive: -26.6%
COc1ccc(N(C)C(=O)c2nn(-c3ccc(C)cc3)c(=O)n(C)c2=O)c(OC)c1 | inactive: -4.44%
Cc1cc(C)cc(NC(=O)N2CCC(C(N)=O)(N3CCCCC3)CC2)c1 | inactive: 4.31%
CCOC(=O)N1CCC(NC(=O)c2cnn(-c3ccc(F)cc3)c2-n2cccc2)CC1 | inactive: -28%
CCN(CC)c1cc(C)c2cc(NC(=O)/C=C/c3ccccc3Cl)ccc2n1 | inactive: -5.53%
COc1ccc(N2CC(NC(=O)C(=O)c3c[nH]c4ccccc34)CC2=O)cc1 (centres undefined) | inactive: -9.22%
COc1ccc(CNC(=O)CC(C)n2nc(C)cc2C)cc1 (centres undefined) | inactive: 0.805%
Cc1ccc(-c2nn(-c3ccc(F)cc3F)c3c2cnc2ccc(F)cc23)cc1 | inactive: -2.41%
O=C(CSc1ncc2c(n1)-c1cc(Cl)ccc1N(Cc1ccccc1)S2(=O)=O)Nc1ccc(F)cc1F | inactive: -28.1%
O=C(CCSCc1cccc(Cl)c1)NCc1ccccc1Cl | inactive: -13.6%
CC(C)Oc1ccc(C(=O)N2CCN(c3nc4c(F)cc(F)cc4s3)CC2)cc1 | inactive: 1.86%
O=c1c(N2CCN(c3ccccc3)CC2)csc2ccc(Cl)cc12 | inactive: -6.93%
CCN1c2ccccc2-n2cccc2C12CCN(C(=O)Nc1ccccc1Br)CC2 | inactive: -19.6%
CCCCn1cc(S(=O)(=O)c2ccccc2)c(=O)c2cc(F)c(N3CCN(CCC)CC3)cc21 | inactive: -12.5%
CCOCCn1ccc2c(OCC(=O)NCc3ccc(F)cc3)cccc2c1=O | inactive: -1.88%
COc1ccc(C2CC(=O)N(Cc3ccccc3C)c3c2c(C)nn3-c2nc(C)cc(C)n2)c(OC)c1 (centres undefined) | inactive: -20.7%
COc1ccc(NC(=O)CSC2=Nc3ccccc3C3=NC(CC(=O)NCc4ccccc4OC)C(=O)N23)cc1Cl (centres undefined) | inactive: -22.3%
COc1ccc(-c2nc3c4ccccc4n(CC(=O)Nc4ccc(C(C)C)cc4)c(=O)n3n2)cc1 | inactive: 0%
Cc1ccccc1-n1c(SCC(=O)Nc2ccc(Cl)cc2Cl)nc(O)cc1=O | inactive: -11.6%

SMILES | activity change, negative = inhibition
CCc1sc(Nc2cccc(C)c2)nc1-c1cc2cccc(OC)c2oc1=O | inactive: -11.6%
OCCOCCN1CCN(C2=Nc3ccccc3Sc3ccccc32)CC1 | inactive: 3.47%
CC(=O)N1CCc2c(sc3c2c(=O)n(-c2ccc(F)cc2)c(=O)n3Cc2cc(C)ccc2C)C1 | inactive: 0.34%
COc1ccc(-c2noc(-c3ccc(N4CCN(C)CC4)c([N+](=O)[O-])c3)n2)cc1 | inactive: 2.33%
COc1cc(C(=O)N2CCN(CCc3ccncc3)CC2)cc(OC)c1OC | inactive: 4.97%
COc1cccc(-n2c(=O)c3c(C)c(C(=O)N(C)C)sc3n(Cc3cccc(C)c3)c2=O)c1 | inactive: -4.23%
COc1ccc(-c2nc(C)c(CCNC(=O)C(=O)Nc3ccccc3F)s2)cc1 | inactive: -1.91%
Cc1ccc(NC(=O)Cn2c(=O)n(CC3CCC(C(=O)NC(C)C)CC3)c(=O)c3sccc32)cc1 (centres undefined) | inactive: -19.6%
COc1ccc(C(CNC(=O)COc2cc(C)cc(C)c2)N2CCCCC2)cc1 (centres undefined) | inactive: -15.8%
COc1ccccc1-n1nc(-c2ccccc2)c2cnc3c(F)cc(F)cc3c21 | inactive: -15%
CCc1cc(S(=O)(=O)O)c2cc(C(C)C)cccc1-2 | inactive: -2.37%
COc1ccc(CCN2CCC(CNC(=O)c3cnn(-c4ccc(C)cc4)c3C3CCN(C(=O)OC(C)(C)C)CC3)CC2)cc1 | inactive: -9.1%
Cc1ccc(N2CC(C(=O)NCCS(=O)(=O)N3CCN(c4ccccc4F)CC3)CC2=O)cc1 (centres undefined) | inactive: -6.64%
CN(C)CCN(C(=O)c1ccco1)c1nc2c(F)cc(F)cc2s1 | inactive: 15.6%
CC1CCN(C(=O)CSc2c3c(nc4ccc(Cl)cc24)CCCC3)CC1 | inactive: -26%
Cc1nc2c3ccccc3nc(NNC(=O)CCC(=O)N3CCN(c4cccc(Cl)c4)CC3)n2n1 | inactive: -20.9%
Cc1cccc(NC(=O)CSc2nc3ccccc3nc2N2CCC(C)CC2)c1 | inactive: -11.9%
COc1ccc(S(=O)(=O)N(CC(=O)Nc2ccc(F)c(Cl)c2)c2ccc(C)cc2)cc1OC | inactive: -29.1%
COc1cccc2c1C(=O)c1c(O)c3c(c(O)c1C2=O)C[C@@](O)(C(=O)CO)C[C@@H]3O[C@H]1C[C@H](N)[C@H](O)[C@H](C)O1 | inactive: -27.7%
Cn1cnc(S(=O)(=O)N2CCC(C(=O)Nc3ccc(F)cc3F)CC2)c1 | inactive: -10.5%
CCOc1ccc(CNC(=O)c2ccc3c(c2)sc2nc(-c4ccccc4)cn23)cc1 | inactive: 28.7%
Cc1ccc(-c2noc(CNC(=O)COc3cc(C)c(Br)c(C)c3)n2)cc1 | inactive: -1.15%
CCOCCc1nnc(NC(=O)C(=O)c2cc(C)n(-c3cccc(C)c3)c2C)s1 | inactive: -26.8%
O=C(NC1CCCCC1)c1ccc2c(c1)N(Cc1cccc(F)c1)C(=O)c1ccccc1S2 | inactive: -11.1%

SMILES | activity change, negative = inhibition
O=C(NC1CCCCC1)c1ccc2c(c1)sc1nc(-c3ccc(F)cc3)cn12 | inactive: -10.5%
Cc1ccc(-n2nc(C(=O)N3CCN(c4ccc(F)cc4)CC3)c(=O)n(C)c2=O)cc1 | inactive: -14.7%
COc1ccc2nc(NC(=O)c3nc(S(=O)(=O)Cc4ccccc4F)ncc3Cl)sc2c1 | inactive: 7.5%
COc1ccc(NCc2cc3cc4c(cc3n(CC(=O)Nc3cccc(F)c3)c2=O)OCO4)cc1 | inactive: -23.6%
O=C(Cn1c(=O)n(-c2ccccc2)c(=O)c2ccc(C(=O)NCc3ccc4c(c3)OCO4)cc21)Nc1ccc(F)cc1 | inactive: -26.5%
COc1cc(OC)c(NC(=O)Cn2c(=O)c(C(F)(F)F)nc3ccccc32)cc1Cl | inactive: -26%
CCc1cccc(NC(=O)Cn2c(=O)n(-c3ccccc3C)c(=O)c3c2c2cc(C)ccc2n3C)c1 | inactive: -35.2%
CCCCc1nn2c(=O)cc(COC(=O)c3cccc(NC(=O)c4cccc(Cl)c4)c3)nc2s1 | inactive: 7.25%
Cc1ccc(CNC(=O)c2ccc(CS(=O)(=O)Cc3ccc(F)cc3)o2)cc1 | inactive: -8.38%
COc1ccc(CCCc2nnc(SCC(=O)Nc3cccc(C)c3)o2)cc1C | inactive: 9.05% [at 11.5 µM]
CCCCN(C)CCCNC(=O)Cn1ncc2c3ccccc3n(Cc3cccc(Cl)c3)c2c1=O | inactive: -17.8%
Cc1cccc(N2CCN(S(=O)(=O)c3cn(C)c(C)n3)CC2)c1C | inactive: -18.2%
Cc1cc(C(=O)NOCCO)c(Nc2ccc(I)cc2F)n(C)c1=O | inactive: -12%
COCCNc1ccc(-c2nc(-c3ccncc3)no2)cc1[N+](=O)[O-] | inactive: 30%
COc1cc(NC(=O)CSc2nc(-c3cccs3)cc(C(F)(F)F)n2)cc(OC)c1OC | inactive: 2.5%
COc1cccc(-n2c(SCC(=O)N3CCc4ccccc43)nc3c([nH]c4ccccc43)c2=O)c1 | inactive: -4.5%
O=C(Nc1ccc(F)cc1F)c1cccc2c1C(=O)N(C1CCCCC1)C2 | inactive: -10.7%
Cc1cccc(CSc2nc3c(c(=O)[nH]2)CCC3)c1 | inactive: -13.6%
CNC(=O)c1ccc2nc(CCc3ccccc3)oc2c1 | inactive: 46.7%
COc1ccc(S(=O)(=O)NCc2cccn2Cc2cccc(C)c2)cc1Cl | inactive: 0%
COc1ccc(-c2cc(C(F)(F)F)nc(SCC(=O)N3CCCCC3)n2)cc1OC | inactive: -17.2%
COc1ccc(OC)c(S(=O)(=O)N2Cc3ccccc3CC2C(=O)Nc2ccc(C)cc2C)c1 (centres undefined) | inactive: -27.4%
CCS(=O)(=O)N1CCc2cc(C(=O)N3CCN(c4ccc(OC)cc4)CC3)ccc21 | inactive: -10.8%
CCc1cccc(C)c1NC(=O)C(CC)n1nc(C)c2c(C)n(-c3ccccc3)nc2c1=O (centres undefined) | inactive: -27.7%

SMILES | activity change, negative = inhibition
COc1ccc(-c2nc(SCC(=O)Nc3ccccc3)c(-c3ccc(F)cc3)[nH]2)cc1OC | inactive: -26.2%
COC(=O)c1sccc1S(=O)(=O)N(CC(=O)NCc1ccccc1)c1ccc(C)c(C)c1 | inactive: -3.19%
Cn1nnnc1SCCNCc1ccc(OCc2ccccc2)cc1 | inactive: 1.86%
COc1ccc(NC(=O)CSc2nnc3scc(-c4ccc(Cl)cc4)n23)cc1 | inactive: -15.1%
CCOC(=O)c1c(C)c(-c2ccccc2)n(CC(=O)Nc2cccc(F)c2)c1C | inactive: 1.05%
CCOc1ccc(NC(=O)CCS(=O)(=O)c2ccc(Br)s2)cc1 | inactive: -13.6%
Cc1cccc(NC(=O)CN2C(=O)COc3ccc(S(=O)(=O)N4CCC(C)CC4)cc32)c1C | inactive: -13.2%
CCN(CC)CCCNC(=O)c1nn(-c2ccc(OC)c(Cl)c2)c(=O)c2c1c1ccccc1n2C | inactive: -0.969%
Cc1ccc(CNC(=O)Cn2c(=O)n(-c3ccc(C)c(F)c3)c(=O)c3sc4ccccc4c32)cc1 | inactive: -13.8%
O=C(Nc1noc2ccccc12)c1c(F)cccc1F | inactive: 23.6%
O=C(Nc1cc(F)ccc1F)c1ccc2c(c1)nnn2C1CCCC1 | inactive: 20%
CCOc1ccc(-c2nc3c(C#N)c[nH]n3c2NC2CCCCC2)cc1 | inactive: -4.2%
CC1(C)CO[C@@H](CC(=O)O)CN1 | inactive: 12.1%
CCOC(=O)C1CCN(C(=O)C2CCN(c3nnc(C)c4c(C)n(-c5ccccc5)nc34)CC2)CC1 | inactive: 13.6%
CCCC(=O)Nc1cc(C(=O)NCc2ccc(OC)cc2)ccc1S(=O)(=O)c1ccc(Cl)cc1 | inactive: 18.1%
Cc1nn(CC(=O)NCc2ccccc2Cl)c(=O)c2cccn12 | inactive: 17.9%
CC(=O)Oc1ccc(C)cc1 | inactive: 9.83%
COc1ccc(-c2cc(OC(=O)c3ccc(F)cc3)c3c(C)oc(C)c3c(=O)c2)cc1OC | inactive: -15.7%
Cc1ccc(Cc2c(C)nn(-c3nc(C)c(C(=O)N4CCCCC4C)s3)c2C)cc1 (centres undefined) | inactive: -9.08%
COc1ccc(NC(=O)C2CCCN(S(=O)(=O)c3c(C)n[nH]c3C)C2)cc1OC (centres undefined) | inactive: -27.9%
Cc1cccc(NC(=O)CN2c3ccccc3S(=O)(=O)c3ccccc32)c1C | inactive: 0%
CCC(=O)N1CCc2cc(S(=O)(=O)NC(C(=O)NCCc3ccc(Cl)cc3)C(C)C)ccc21 (centres undefined) | inactive: -1.08%
